Laboratory results reported in US20140154256A1 (published 2014).

Tests used:
human IL-12 [1] = molecular target: T1, human IL-12 (human, UniProt P29459 23-219; P29460 23-328); assay: SPR (Biacore)
T1 construct: also called hIL-12
T1 sequence (looked up) 1: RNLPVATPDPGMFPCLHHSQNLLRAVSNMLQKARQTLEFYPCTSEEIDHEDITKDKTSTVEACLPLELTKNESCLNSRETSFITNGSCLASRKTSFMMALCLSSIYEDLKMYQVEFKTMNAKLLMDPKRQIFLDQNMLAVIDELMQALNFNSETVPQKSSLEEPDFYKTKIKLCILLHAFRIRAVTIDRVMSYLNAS
T1 sequence (looked up) 2: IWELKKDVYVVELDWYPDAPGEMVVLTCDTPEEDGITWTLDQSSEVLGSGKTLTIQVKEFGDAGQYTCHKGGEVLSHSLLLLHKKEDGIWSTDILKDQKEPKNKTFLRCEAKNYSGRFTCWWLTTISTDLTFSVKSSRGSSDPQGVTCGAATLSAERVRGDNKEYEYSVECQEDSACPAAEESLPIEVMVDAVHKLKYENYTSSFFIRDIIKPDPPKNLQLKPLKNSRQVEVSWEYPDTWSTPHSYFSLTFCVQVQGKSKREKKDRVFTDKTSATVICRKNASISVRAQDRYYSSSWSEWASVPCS

human IL-18 [2] = molecular target: T2, human IL-18 (human, UniProt Q14116 37-193); assay: SPR (Biacore)
T2 construct: also called hIL-18

human IL-18 [3] = molecular target: T2, human IL-18; assay: SPR (Biacore); remark: listed apart in the source
human IL-12 [4] = molecular target: T1, human IL-12; assay: cell-based or functional assay
human IL-18 [5] = molecular target: T2, human IL-18; assay: cell-based or functional assay
human IL-12 [6] = molecular target: T1, human IL-12; assay: cell-based or functional assay; remark: listed apart in the source
human IL-18 [7] = molecular target: T2, human IL-18; assay: cell-based or functional assay; remark: listed apart in the source
human IL-12 [8] = molecular target: T1, human IL-12; assay: SPR (Biacore); remark: listed apart in the source
human IL-18 [9] = molecular target: T2, human IL-18; assay: SPR (Biacore); remark: listed apart in the source
human IL-12 [10] = molecular target: T1, human IL-12; assay: cell-based or functional assay; remark: listed apart in the source
human IL-18 [11] = molecular target: T2, human IL-18; assay: cell-based or functional assay; remark: listed apart in the source

B1: DVD1218SL (anti-IL12/IL18 DVD-Ig, 12-18-C, short linker) (bispecific antibody, human IgG1, kappa)
heavy: QVQLVESGGGVVQPGRSLRLSCAASGFTFSSYGMHWVRQAPGKGLEWVAFIRYDGSNKYYADSVKGRFTISRDNSKNTLYLQMNSLRAEDTAVYYCKTHGSHDNWGQGTMVTVSSASTKGPEVQLVQSGTEVKKPGESLKISCKGSGYTVTSYWIGWVRQMPGKGLEWMGFIYPGDSETRYSPTFQGQVTISADKSFNTAFLQWSSLKASDTAMYYCARVGSGWYPYTFDIWGQGTMVTVSS[letters of human IgG1 constant region left out]
light: QSVLTQPPSVSGAPGQRVTISCSGSRSNIGSNTVKWYQQLPGTAPKLLIYYNDQRPSGVPDRFSGSKSGTSASLAITGLQAEDEADYYCQSYDRYTHPALLFGTGTKVTVLGQPKAAPEIVMTQSPATLSVSPGERATLSCRASESISSNLAWYQQKPGQAPRLFIYTASTRATDIPARFSGSGSGTEFTLTISSLQSEDFAVYYCQQYNNWPSITFGQGTRLEIKRTVAAPSVFIFPPSDEQLKSGTASVVCLLNNFYPREAKVQWKVDNALQSGNSQESVTEQDSKDSTYSLSSTLTLSKADYEKHKVYACEVTHQGLSSPVTKSFNRGEC
notes: also called DVD1218HC-SL / DVD1218LC-SL
Question: B1 was tested. Which Kd (human IL-12 [1]) did it give?
Answer: 0.0381 nM

Question: And the Kd (human IL-18 [2])?
Answer: 0.622 nM

Question: And the Kd (human IL-18 [3])?
Answer: 0.622 nM

Question: And the “Potency (IC50, M), IL-12-induced IFN-γ production by PHA blast cells” value (human IL-12 [4])?
Answer: 6.93e-12 M

Question: What about the “Potency (IC50, M), KG-1 bioassay (IFN-γ production)” value (human IL-18 [5]) of the same binder?
Answer: 1.8e-10 M

Question: What about the “Potency (IC50), PHA-Blast Assay” value (human IL-12 [6]) of the same binder?
Answer: 0.007 nM

Question: What about the “Potency (IC50), KG-1 Assay” value (human IL-18 [7]) of the same binder?
Answer: 0.18 nM

B2: DVD1218LL (anti-IL12/IL18 DVD-Ig, 12-18-C, long linker) (bispecific antibody, human IgG1, kappa, lambda)
heavy: QVQLVESGGGVVQPGRSLRLSCAASGFTFSSYGMHWVRQAPGKGLEWVAFIRYDGSNKYYADSVKGRFTISRDNSKNTLYLQMNSLRAEDTAVYYCKTHGSHDNWGQGTMVTVSSASTKGPSVFPLAPEVQLVQSGTEVKKPGESLKISCKGSGYTVTSYWIGWVRQMPGKGLEWMGFIYPGDSETRYSPTFQGQVTISADKSFNTAFLQWSSLKASDTAMYYCARVGSGWYPYTFDIWGQGTMVTVSS[letters of human IgG1 constant region left out]
light: QSVLTQPPSVSGAPGQRVTISCSGSRSNIGSNTVKWYQQLPGTAPKLLIYYNDQRPSGVPDRFSGSKSGTSASLAITGLQAEDEADYYCQSYDRYTHPALLFGTGTKVTVLGQPKAAPSVTLFPPEIVMTQSPATLSVSPGERATLSCRASESISSNLAWYQQKPGQAPRLFIYTASTRATDIPARFSGSGSGTEFTLTISSLQSEDFAVYYCQQYNNWPSITFGQGTRLEIKRTVAAPSVFIFPPSDEQLKSGTASVVCLLNNFYPREAKVQWKVDNALQSGNSQESVTEQDSKDSTYSLSSTLTLSKADYEKHKVYACEVTHQGLSSPVTKSFNRGEC
notes: also called DVD1218HC-LL / DVD1218LC-LL
Question: How did the Kd (human IL-12 [1]) turn out when B2 was run?
Answer: 0.0238 nM

Question: What about the Kd (human IL-18 [2]) of the same binder?
Answer: 0.664 nM

Question: What about the “Potency (IC50, M), IL-12-induced IFN-γ production by PHA blast cells” value (human IL-12 [4]) of the same binder?
Answer: 3.04e-12 M

Question: What about the “Potency (IC50, M), KG-1 bioassay (IFN-γ production)” value (human IL-18 [5]) of the same binder?
Answer: 1.8e-10 M

B3: 1D4.1-ABT325 DVD-Ig (bispecific antibody, human IgG1, kappa)
heavy: EVTLRESGPALVKPTQTLTLTCTFSGFSLSKSVMGVSWIRQPPGKALEWLAHIYWDDDKYYNPSLKSRLTISKDTSKNQVVLTMTNMDPVDTATYYCARRGIRSAMDYWGQGTTVTVSSASTKGPEVQLVQSGTEVKKPGESLKISCKGSGYTVTSYWIGWVRQMPGKGLEWMGFIYPGDSETRYSPTFQGQVTISADKSFNTAFLQWSSLKASDTAMYYCARVGSGWYPYTFDIWGQGTMVTVSS[letters of human IgG1 constant region left out]
light: DIVMTQSPDSLAVSLGERATINCKASQSVSNDVAWYQQKPGQPPKLLIYYASNRYTGVPDRFSGSGSGTDFTLTISSLQAEDVAVYYCQQDYNSPWTFGGGTKVEIKRTVAAPEIVMTQSPATLSVSPGERATLSCRASESISSNLAWYQQKPGQAPRLFIYTASTRATDIPARFSGSGSGTEFTLTISSLQSEDFAVYYCQQYNNWPSITFGQGTRLEIKRTVAAPSVFIFPPSDEQLKSGTASVVCLLNNFYPREAKVQWKVDNALQSGNSQESVTEQDSKDSTYSLSSTLTLSKADYEKHKVYACEVTHQGLSSPVTKSFNRGEC
notes: Short linkers ASTKGP / TVAAP
Question: How did the Kd (human IL-12 [8]) turn out when B3 was run?
Answer: 0.133 nM

Question: What about the Kd (human IL-18 [9]) of the same binder?
Answer: 0.159 nM

Question: And the “Potency (IC50, M), PBMC assay (IL-12)” value (human IL-12 [10])?
Answer: 2.17e-10 M

Question: What about the “Potency (IC50, M), KG-1 bioassay (IL-18)” value (human IL-18 [11]) of the same binder?
Answer: 1.2e-10 M

Where two headings read alike, the source gives them in different places.
